# According to article PMC10726135:
# The other results are listed elsewhere or left out. At the low end of the ranking the order means little. The protein was read in a cell extract, so binding may be indirect.
# Target: T1, HNF4alpha8 (COS-7 nuclear extract) (UniProt P41235-5)
# T1 sequence: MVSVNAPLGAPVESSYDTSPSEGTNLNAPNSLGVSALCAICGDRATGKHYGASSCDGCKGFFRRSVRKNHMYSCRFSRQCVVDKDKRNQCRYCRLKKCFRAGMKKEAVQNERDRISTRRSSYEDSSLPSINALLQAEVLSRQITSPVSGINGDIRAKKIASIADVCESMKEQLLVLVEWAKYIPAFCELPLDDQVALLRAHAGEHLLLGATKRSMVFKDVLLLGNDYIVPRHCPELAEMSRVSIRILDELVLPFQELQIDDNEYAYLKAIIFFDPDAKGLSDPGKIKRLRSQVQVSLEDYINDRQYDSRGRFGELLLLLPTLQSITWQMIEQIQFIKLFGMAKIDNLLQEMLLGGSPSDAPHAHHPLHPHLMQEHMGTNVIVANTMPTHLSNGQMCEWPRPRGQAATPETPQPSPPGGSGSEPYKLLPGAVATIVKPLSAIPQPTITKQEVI
# Experiment: protein-binding microarray
# Details: COS-7 nuclear extract on double-stranded Agilent 4x180k PBM; binding buffer, salt, pH and temperature not given; high values mean tight binding; double strand, one strand shown; sequences stand for … in …GCCTAGGGAGATTAGAGTATCGGTCGA
row,Sequence,binding signal (log2 normalized intensity)
1,AGCAAAAAGTTTGGACTAGCCACAGGGGAA,-1.31
2,GCCCTACAGCTCCTGAGTCCACATGAGCCT,0.625
3,CTGGCCATGCCCCAGATGCCCAGCAGAGGG,-1.06
4,AACAGCCCCATGAGATAGGTACTATTATTA,0.551
5,GCCATCTGGTGGACTTTGCTCTGCTCATTT,7.25
6,TAGCAACCAAGTACCGCAAACAAGGTGGCT,-1.26
7,ACTTTGTAGCTCAAACAGTCTAAAAACCAT,-1.35
8,ACTTTGACTTCCATTGTGTTGCAGATGATC,1.67
9,CTTTGAGAAAGCAAAGTCCCTGGGGACAGG,-0.149
10,TTGGTACCTCCCCCCACACCATTAGAGAAC,5.27
11,GGAATGAATCAGAATTTGGAGAATTCAGAC,-1.35
12,CTGGATTCTCAAACCTTCCAAAGTTCAACC,4.09
13,ACACACACACACACACACATTGCAGTATGC,-1.18
14,TTGCCTCATGTTTGCAGAATGGCTGATGTA,1.58
15,TTTTAGAATTAACTAAAAGTATCTAAGGGC,0.0738
16,AAAGGCAACATCTTGAGCCAGGAATGCAAG,-1.26
17,AGGCTCAGAGGTCAAGTCACTGCTCAAAAA,1.7
18,ATTCCGGCCGTATCAGAAGAACTGCACTGT,0.189
19,GACTCCTCCCTCAGCCTGAACCTCTGTCTC,0.92
20,CTTCATATCAGTAAACCCCAATCAGGTTTC,1.27
21,AAAACTGGTCAATATCCACACAAACCCAGT,-0.919
22,GCAGGAGCTGGCCTGGTAGGACAGGGATCC,-1.32
23,TGATATTGTGAAATATATATTTGCTCTTCA,1.27
24,CATTCAGCACCAGGGATAGCGCCCACACTG,-1.29
25,GACTTTAACCCCCTTGTCTTCCTCAAATTA,2.74

row,Sequence,binding signal (log2 normalized intensity)
1,AATTCCTTTCAAACTGTATTGCTCAATGTC,0.181
2,GCTTATGTTTGCAAGTCGAGCAAGGTTCAG,2.45
3,GCTGATCCTATTTACCTGCCTGTGCTGTGG,1.23
4,AAGGTTGCAGAGTGTCCCACTTCAGGCAGG,-1.27
5,AAAACAGCATGCGGTAAAGAAGCCAGCCAA,-1.05
6,CCTTATCAGCGGCCCTGTGCTGCCCCCGAT,4.76
7,TTCTTCTGCTTCCCTAGGGAGGTGATTGGT,1.08
8,AAGAGTGAATTCTGCAGCAGATGGCCAGCC,-1.34
9,CAACATAGTGATTTAGGCTTTTGGGCCCTG,0.116
10,CAGTATACTGACTTATCAGGGTTATTTGCT,-1.31
11,CTGTCTAGGCCAGAGTTCACTTTCCTCTCA,1.58
12,AGATAGGACAGTGGTCTTTATGACTTGGGT,1.4
13,TAAAGTCCAAATTCCTTGGAATACATGGAA,2.17
14,GTCTTACTAAATGCAGCCTTGGGCAAGTTA,-1.09
15,TTGGGCCCTGTCTGATAAGGGTGTTTGTCC,1.45
16,TCAGTATGAATGCCTTGGCCTCTGCAGACA,-0.716
17,AGACACACTCAGGCACTGGGATCCAAAGTT,-1.31
18,ATAAAGTGATTAGTGCAAGAATCCAAGAAT,-1.4
19,GTTGTCTGATGGCTGCTTCACACAAACATC,-1.31
20,CTCCCTGAAGAAACAGTCTTTGCTTTTTGA,0.788
21,CCAGATAAGACTATCTCATGACAGACCTAA,-1.43
22,TTGAACTGCTGGGGGTAAAGTGGATTGCTG,0.866
23,TCTCCTCTGCCACTGTATCAGGGAGATAGT,-1.07
24,GCAGAATTTCTTTTAATGTGTGCTTTCAGG,1.46
25,AGCCTGTGGCCAGGCTGCGTTTCAAAGCCA,-1.4

row,Sequence,binding signal (log2 normalized intensity)
1,CAACATTGTCCAGCAGACACGGGCAGGTGA,-1.36
2,CCAGACAGGAGGATTCCTGATGCGTTCAAG,-1.24
3,GGTATGGATTCTGGGACCCACCCACCTATG,0.692
4,CCCTTCGCTCCCCGACCTCCTGCTGCAGCT,2.08
5,AGAAGAAAGCCCTTTTTGGAATGTGTTTGC,1.61
6,ACAGCAACTCAGGCAACAATGCCTTGTGTA,-1.29
7,GATTCTTACAGGCAATTGATAATGATGTTT,0.983
8,ACTGCATTCCCTTTCTCCTCCCCTCCCCTC,4.48
9,TTGGAGTTGAGGTCAGACATGGCTGTATGT,1.43
10,GTCTAATTGTGCTGAGAGAGTCCTTGTTTG,1.67
11,TGGATGTTTCCTTTGAACTCTGCATCCAGG,2.52
12,TAGCAATAATCTTTGAAATCTGCAAATAGA,-0.888
13,AGTGTGTAAGTATGCTCACTGACCTCTGCC,3.94
14,CAGTAGTTCTCCTTTCTGCCCTTTGAAGCA,3.18
15,AGGAACTTGTTGGTAACCGGAGCAAAGGTT,3.78
16,ACAAATGAAAGAGCTCAAATGACAGAACAG,-1.35
17,GAAAAAAGCCAATCTCTCAAATCTAGCCAA,-1.33
18,TTGGTGTAACTCTGGGTCTGAGACCAAAGT,2.02
19,AGGGAAAAAATAATCAGCTTAAGCATACAG,-1.14
20,GGTCTGTAGAAGGCGCTGTGAAGCACATCC,-1.27
21,ATTCTTAGACACAGTCTGAGATAGAAGGTC,1.46
22,ACAACATTGAAAGCGATCTTTGCATTCCCA,0.796
23,TGGGAGAGCACTTGGTGCCTCTGAGCTAAG,-1.34
